± gives the standard deviation of the averaged measurements. Laboratory Escherichia coli strains with one amino-acid change in an essential protein, pooled on minimal glucose agar with carbenicillin or gentamicin at twice the control MIC (plus kanamycin and chloramphenicol for the plasmids), 48 h. Fold change of barcode share against drug-free plates; higher = less susceptible. Active = above 20 in both replicates (the paper's putatively resistant). '<' = one read or none on drug, '>' = one read or none on a drug-free plate. Shares are relative, so most strains fall below 1 when a few take over. Listed are strains with at least 15 reads on both drug-free plates, and hits; most hits rest on fewer reference reads. Replicate rank correlation about 0.5. Edits are read from barcodes.
Molecular target: Escherichia coli (laboratory strain)
Assay: barcode share on antibiotic plates over drug-free plates; higher = less susceptible
Experimental: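 A pool of E. coli strains, each edited to carry one amino-acid change in an essential protein, was grown for 48 h on minimal glucose agar with or without antibiotic; strain barcodes were sequenced; mean of two replicates.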

[1] = antibiotic: carbenicillin, 2× MIC (3.1 µg/mL)
[2] = antibiotic: gentamicin, 2× MIC (MIC 0.45 µg/mL)

| Protein | fold change of barcode share [1] | fold change of barcode share [2] |
| --- | --- | --- |
| metE V127A (protein) MTILNHTLGFPRVGLRRELKKAQESYWAGNSTREELLAVGRELRARHWDQQKQAGIDLLPVGDFAWYDHVLTTSLLLGNVPARHQNKDGSVDIDTLFRIGRGRAPTGEPAAAAEMTKWFNTNYHYMAPEFVKGQQFKLTWTQLLDEVDEALALGHKVKPVLLGPVTWLWLGKVKGEQFDRLSLLNDILPVYQQVLAELAKRGIEWVQIDEPALVLELPQAWLDAYKPAYDALQGQVKLLLTTYFEGVTPNLDTITALPVQGLHVDLVHGKDDVAELHKRLPSDWLLSAGLINGRNVWRADLTEKYAQIKDIVGKRDLWVASSCSLLHSPIDLSVETRLDAEVKSWFAFALQKCHELALLRDALNSGDTAALAEWSAPIQARRHSTRVHNPAVEKRLAAITAQDSQRANVYEVRAEAQRARFKLPAWPTTTIGSFPQTTEIRTLRLDFKKGNLDANNYRTGIAEHIKQAIVEQERLGLDVLVHGEAERNDMVEYFGEHLDGFVFTQNGWVQSYGSRCVKPPIVIGDISRPAPITVEWAKYAQSLTDKPVKGMLTGPVTILCWSFPREDVSRETIAKQIALALRDEVADLEAAGIGIIQIDEPALREGLPLRRSDWDAYLQWGVEAFRINAAVAKDDTQIHTHMCYCEFNDIMDSIAALDADVITIETSRSDMELLESFEEFDYPNEIGPGVYDIHSPNVPSVEWIEALLKKAAKRIPAERLWVNPDCGLKTRGWPETRAALANMVQAAQNLRRG | 0.518 ± 0.13 | < 0.0082 |
| metE V127Q (protein) MTILNHTLGFPRVGLRRELKKAQESYWAGNSTREELLAVGRELRARHWDQQKQAGIDLLPVGDFAWYDHVLTTSLLLGNVPARHQNKDGSVDIDTLFRIGRGRAPTGEPAAAAEMTKWFNTNYHYMQPEFVKGQQFKLTWTQLLDEVDEALALGHKVKPVLLGPVTWLWLGKVKGEQFDRLSLLNDILPVYQQVLAELAKRGIEWVQIDEPALVLELPQAWLDAYKPAYDALQGQVKLLLTTYFEGVTPNLDTITALPVQGLHVDLVHGKDDVAELHKRLPSDWLLSAGLINGRNVWRADLTEKYAQIKDIVGKRDLWVASSCSLLHSPIDLSVETRLDAEVKSWFAFALQKCHELALLRDALNSGDTAALAEWSAPIQARRHSTRVHNPAVEKRLAAITAQDSQRANVYEVRAEAQRARFKLPAWPTTTIGSFPQTTEIRTLRLDFKKGNLDANNYRTGIAEHIKQAIVEQERLGLDVLVHGEAERNDMVEYFGEHLDGFVFTQNGWVQSYGSRCVKPPIVIGDISRPAPITVEWAKYAQSLTDKPVKGMLTGPVTILCWSFPREDVSRETIAKQIALALRDEVADLEAAGIGIIQIDEPALREGLPLRRSDWDAYLQWGVEAFRINAAVAKDDTQIHTHMCYCEFNDIMDSIAALDADVITIETSRSDMELLESFEEFDYPNEIGPGVYDIHSPNVPSVEWIEALLKKAAKRIPAERLWVNPDCGLKTRGWPETRAALANMVQAAQNLRRG | 1.09 ± 0.19 | – |
| metB V207A (protein) MTRKQATIAVRSGLNDDEQYGCVVPPIHLSSTYNFTGFNEPRAHDYSRRGNPTRDVVQRALAELEGGAGAVLTNTGMSAIHLVTTVFLKPGDLLVAPHDCYGGSYRLFDSLAKRGCYRVLFVDQGDEQALRAALAEKPKLVLVESPSNPLLRVVDIAKICHLAREVGAVSVVDNTFLSPALQNPLALGADLVLHSCTKYLNGHSDVAAGVVIAKDPDVVTELAWWANNIGVTGGAFDSYLLLRGLRTLVPRMELAQRNAQAIVKYLQTQPLVKKLYHPSLPENQGHEIAARQQKGFGAMLSFELDGDEQTLRRFLGGLSLFTLAESLGGVESLISHAATMTHAGMAPEARAAAGISETLLRISTGIEDGEDLIADLENGFRAANKG | 0.386 ± 0.1 | 0.00723 ± 0.0044 |
| metB V210P (protein) MTRKQATIAVRSGLNDDEQYGCVVPPIHLSSTYNFTGFNEPRAHDYSRRGNPTRDVVQRALAELEGGAGAVLTNTGMSAIHLVTTVFLKPGDLLVAPHDCYGGSYRLFDSLAKRGCYRVLFVDQGDEQALRAALAEKPKLVLVESPSNPLLRVVDIAKICHLAREVGAVSVVDNTFLSPALQNPLALGADLVLHSCTKYLNGHSDVVAGPVIAKDPDVVTELAWWANNIGVTGGAFDSYLLLRGLRTLVPRMELAQRNAQAIVKYLQTQPLVKKLYHPSLPENQGHEIAARQQKGFGAMLSFELDGDEQTLRRFLGGLSLFTLAESLGGVESLISHAATMTHAGMAPEARAAAGISETLLRISTGIEDGEDLIADLENGFRAANKG | 0.298 ± 0.094 | < 0.00548 |
| metB V207W (protein) MTRKQATIAVRSGLNDDEQYGCVVPPIHLSSTYNFTGFNEPRAHDYSRRGNPTRDVVQRALAELEGGAGAVLTNTGMSAIHLVTTVFLKPGDLLVAPHDCYGGSYRLFDSLAKRGCYRVLFVDQGDEQALRAALAEKPKLVLVESPSNPLLRVVDIAKICHLAREVGAVSVVDNTFLSPALQNPLALGADLVLHSCTKYLNGHSDVWAGVVIAKDPDVVTELAWWANNIGVTGGAFDSYLLLRGLRTLVPRMELAQRNAQAIVKYLQTQPLVKKLYHPSLPENQGHEIAARQQKGFGAMLSFELDGDEQTLRRFLGGLSLFTLAESLGGVESLISHAATMTHAGMAPEARAAAGISETLLRISTGIEDGEDLIADLENGFRAANKG | 0.408 ± 0.014 | 0.0103 ± 0.0072 |
| metB V210W (protein) MTRKQATIAVRSGLNDDEQYGCVVPPIHLSSTYNFTGFNEPRAHDYSRRGNPTRDVVQRALAELEGGAGAVLTNTGMSAIHLVTTVFLKPGDLLVAPHDCYGGSYRLFDSLAKRGCYRVLFVDQGDEQALRAALAEKPKLVLVESPSNPLLRVVDIAKICHLAREVGAVSVVDNTFLSPALQNPLALGADLVLHSCTKYLNGHSDVVAGWVIAKDPDVVTELAWWANNIGVTGGAFDSYLLLRGLRTLVPRMELAQRNAQAIVKYLQTQPLVKKLYHPSLPENQGHEIAARQQKGFGAMLSFELDGDEQTLRRFLGGLSLFTLAESLGGVESLISHAATMTHAGMAPEARAAAGISETLLRISTGIEDGEDLIADLENGFRAANKG | 0.343 ± 0.17 | 0.0365 ± 0.043 |
| metB V207Q (protein) MTRKQATIAVRSGLNDDEQYGCVVPPIHLSSTYNFTGFNEPRAHDYSRRGNPTRDVVQRALAELEGGAGAVLTNTGMSAIHLVTTVFLKPGDLLVAPHDCYGGSYRLFDSLAKRGCYRVLFVDQGDEQALRAALAEKPKLVLVESPSNPLLRVVDIAKICHLAREVGAVSVVDNTFLSPALQNPLALGADLVLHSCTKYLNGHSDVQAGVVIAKDPDVVTELAWWANNIGVTGGAFDSYLLLRGLRTLVPRMELAQRNAQAIVKYLQTQPLVKKLYHPSLPENQGHEIAARQQKGFGAMLSFELDGDEQTLRRFLGGLSLFTLAESLGGVESLISHAATMTHAGMAPEARAAAGISETLLRISTGIEDGEDLIADLENGFRAANKG | 0.458 ± 0.028 | 0.00787 ± 0.00061 |
| metB V210Q (protein) MTRKQATIAVRSGLNDDEQYGCVVPPIHLSSTYNFTGFNEPRAHDYSRRGNPTRDVVQRALAELEGGAGAVLTNTGMSAIHLVTTVFLKPGDLLVAPHDCYGGSYRLFDSLAKRGCYRVLFVDQGDEQALRAALAEKPKLVLVESPSNPLLRVVDIAKICHLAREVGAVSVVDNTFLSPALQNPLALGADLVLHSCTKYLNGHSDVVAGQVIAKDPDVVTELAWWANNIGVTGGAFDSYLLLRGLRTLVPRMELAQRNAQAIVKYLQTQPLVKKLYHPSLPENQGHEIAARQQKGFGAMLSFELDGDEQTLRRFLGGLSLFTLAESLGGVESLISHAATMTHAGMAPEARAAAGISETLLRISTGIEDGEDLIADLENGFRAANKG | 0.373 ± 0.062 | 0.0104 ± 0.0028 |
| metB V210A (protein) MTRKQATIAVRSGLNDDEQYGCVVPPIHLSSTYNFTGFNEPRAHDYSRRGNPTRDVVQRALAELEGGAGAVLTNTGMSAIHLVTTVFLKPGDLLVAPHDCYGGSYRLFDSLAKRGCYRVLFVDQGDEQALRAALAEKPKLVLVESPSNPLLRVVDIAKICHLAREVGAVSVVDNTFLSPALQNPLALGADLVLHSCTKYLNGHSDVVAGAVIAKDPDVVTELAWWANNIGVTGGAFDSYLLLRGLRTLVPRMELAQRNAQAIVKYLQTQPLVKKLYHPSLPENQGHEIAARQQKGFGAMLSFELDGDEQTLRRFLGGLSLFTLAESLGGVESLISHAATMTHAGMAPEARAAAGISETLLRISTGIEDGEDLIADLENGFRAANKG | 0.323 ± 0.17 | < 0.00471 |
| metB V207P (protein) MTRKQATIAVRSGLNDDEQYGCVVPPIHLSSTYNFTGFNEPRAHDYSRRGNPTRDVVQRALAELEGGAGAVLTNTGMSAIHLVTTVFLKPGDLLVAPHDCYGGSYRLFDSLAKRGCYRVLFVDQGDEQALRAALAEKPKLVLVESPSNPLLRVVDIAKICHLAREVGAVSVVDNTFLSPALQNPLALGADLVLHSCTKYLNGHSDVPAGVVIAKDPDVVTELAWWANNIGVTGGAFDSYLLLRGLRTLVPRMELAQRNAQAIVKYLQTQPLVKKLYHPSLPENQGHEIAARQQKGFGAMLSFELDGDEQTLRRFLGGLSLFTLAESLGGVESLISHAATMTHAGMAPEARAAAGISETLLRISTGIEDGEDLIADLENGFRAANKG | 0.601 ± 0.063 | 0.0117 ± 0.0047 |
| metB V210D (protein) MTRKQATIAVRSGLNDDEQYGCVVPPIHLSSTYNFTGFNEPRAHDYSRRGNPTRDVVQRALAELEGGAGAVLTNTGMSAIHLVTTVFLKPGDLLVAPHDCYGGSYRLFDSLAKRGCYRVLFVDQGDEQALRAALAEKPKLVLVESPSNPLLRVVDIAKICHLAREVGAVSVVDNTFLSPALQNPLALGADLVLHSCTKYLNGHSDVVAGDVIAKDPDVVTELAWWANNIGVTGGAFDSYLLLRGLRTLVPRMELAQRNAQAIVKYLQTQPLVKKLYHPSLPENQGHEIAARQQKGFGAMLSFELDGDEQTLRRFLGGLSLFTLAESLGGVESLISHAATMTHAGMAPEARAAAGISETLLRISTGIEDGEDLIADLENGFRAANKG | 0.22 ± 0.076 | < 0.00535 |
